From publication PMC12136788
The other results are listed elsewhere or left out.

T1: UNK ZnF1-6 (called full-length) (human, UniProt Q9C0B0 30-357)
T1 sequence: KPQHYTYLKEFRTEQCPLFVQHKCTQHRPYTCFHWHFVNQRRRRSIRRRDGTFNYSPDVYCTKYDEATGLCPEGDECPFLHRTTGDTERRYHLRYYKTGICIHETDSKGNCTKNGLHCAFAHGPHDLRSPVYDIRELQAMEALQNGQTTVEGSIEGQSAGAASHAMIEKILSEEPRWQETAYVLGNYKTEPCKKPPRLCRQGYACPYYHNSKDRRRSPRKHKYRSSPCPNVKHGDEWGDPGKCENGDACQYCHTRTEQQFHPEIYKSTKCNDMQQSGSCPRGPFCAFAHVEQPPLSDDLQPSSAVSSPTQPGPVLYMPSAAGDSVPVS

B1: chr2:206003504:206003605:-|3pUTR|ENSG00000114933|msi1|FALSE|unique (ssRNA)
RNA: GGGAGUUCUACAGUCCGACGAUCGGUCGUGUGAGUAGCACAACCUUUUUCUGCUAAAAGUUAGCCCAAGAAGAAACAGAACAUAGAAAGCUUGGAUUCCCGUCAGUGAGGUAGGGAUGUCCUAAAAAGCUUGCCUGGGAUGACCAACAGAGGAUUGAGCAUCA
B2: chr11:35726083:35726184:+|CDS|ENSG00000166326|msi1|FALSE|bound_elsewhere (ssRNA)
RNA: GGGAGUUCUACAGUCCGACGAUCGAGGCAAUGGCCACAGCUCAUGUGACUGAGAUACUGGCAGACAUCCAAUCCCACAUGGAUAGGUUGAUGACUCAGAUGGCCCAAGCCAAGGAACAACUUGAUACCUCUAAUGAAUCAGCUCAACAGAGGAUUGAGCAUCA
B3: ENSG00000124766:be:win_801|CDS|ENSG00000124766|bound_else_gene|NA|bound_elsewhere_windowed (ssRNA)
RNA: GGGAGUUCUACAGUCCGACGAUCCUCGGCCUCCGCCUCCUCGGCAGCCUCGGCCUCCGCAGCGCUCGCGGCCCCGGGCAAGCACCUGGCGGAGAAGAAGGUGAAGCGCGUCUACCUGUUCGGCGGCCUGGGCACGUCGUCGUCCAACAGAGGAUUGAGCAUCA
B4: chr1:109011400:109011505:-|CDS|ENSG00000085433|unk|FALSE|unique (ssRNA)
RNA: GGGAGUUCUACAGUCCGACGAUCGUCAUGGUUGCAGAAUUCAUCCCUGCUGAUAGGAAGCUAAGUGAAGCUGGUUUUAAGGCUAGUAACAAUCGUUUAUUUCAGCUUGUAAUGAAAGGCCUGCUUUAUGAAUGCUGUGUAGAACAACAGAGGAUUGAGCAUCA
B5: chr1:54031757:54031935:-|3pUTR|ENSG00000116209|msi1|total|mutant (ssRNA)
RNA: GGGAGUUCUACAGUCCGACGAUCUCCGCUAUGAGCUGAUCAUUGCUCCUUCUCACCUCCUGCCAUGAUACUGUCAGUUACCUCCGUUAACAAGCUGAAUAUUCCGCCGAAAUGAUGCUUCUGCUCAGGAAUGGCCCACAAAUCCAACAGAGGAUUGAGCAUCA
B6: ENSG00000070961:be:win_4151|3pUTR|ENSG00000070961|bound_else_gene|NA|bound_elsewhere_windowed (ssRNA)
RNA: GGGAGUUCUACAGUCCGACGAUCGAUGGGAAGCUUCCUUAUAACUGAUGCAGAGAAAAAUUAGUCCUUCAAAUACUGCUGUAUUUUCAGGAAAAAAAAAAAAAGGGGUGUUUCUAUUGAAACUGUACUAAAUUUUUGCCUACACAACAGAGGAUUGAGCAUCA
B7: chr3:183812448:183812549:+|3pUTR|ENSG00000163872|msi1|FALSE|unique (ssRNA)
RNA: GGGAGUUCUACAGUCCGACGAUCUAUUGCAGGUAUCACAGCCUAAAGAAAUUAUCUUUUUGCAAAAGAAAUAUUAAAUGAUUUAGCAGUCUCCACGUGUGUUAAUGUUUCAAACGUGUAUCAUAAUGUGUAUAAUUGUGUAACCAACAGAGGAUUGAGCAUCA
B8: chr3:124966548:124966651:-|3pUTR|ENSG00000173706|unk|FALSE|bound_elsewhere (ssRNA)
RNA: GGGAGUUCUACAGUCCGACGAUCAGGAAGAAUGCAAAGUUCAGUAUUUCAAUACUUUGUAUUUUACUUGAAAUUACCCUUAGUAGCAUCUUUUUUUUCCUGUCUGAAAGCUUUUGUGUGGAUGAGAAGGGACAUUUCAUUUCCCAACAGAGGAUUGAGCAUCA
B9: chr3:196782704:196782805:+|CDS|ENSG00000180370|unk|FALSE|bound_elsewhere (ssRNA)
RNA: GGGAGUUCUACAGUCCGACGAUCAACGGAGAACUGGAAGAUAAGCCUCCAGCACCUCCUGUGCGAAUGAGCAGCACCAUCUUUAGCACUGGAGGCAAAGACCCUUUGUCAGCCAAUCACAGUUUGAAACCUUUGCCCUCUGUUCAACAGAGGAUUGAGCAUCA
B10: chr13:52643008:52643109:+|CDS|ENSG00000139675|unk|FALSE|unique (ssRNA)
RNA: GGGAGUUCUACAGUCCGACGAUCCAUACUGUGAAGGGCCACAACUGUGAAGUUAGAAAAGCCCUGCCAAAGCAAGAGAUGGCUAGUGCUUCAUCCAGCCAAAGAGGUCGAAGGGGUUCUGGAAACUUUGGUGGUGGUCGUGGACAACAGAGGAUUGAGCAUCA
B11: chr11:119045269:119045370:-|3pUTR|ENSG00000149428|msi1|total|mutant (ssRNA)
RNA: GGGAGUUCUACAGUCCGACGAUCUGUGGUUAAAAAUGGAAACUGUUCUCCUCCCCAGCCCCACUCCCUGUUCCCUACCCAUACCGGCCCUAAAUUUGGGAAAAAUCACUAUUAAUUUCUGAAUCCUUUGCCUGUGGGCCGGAACAACAGAGGAUUGAGCAUCA
B12: ENSG00000124766:be:win_1951|3pUTR|ENSG00000124766|bound_else_gene|NA|bound_elsewhere_windowed (ssRNA)
RNA: GGGAGUUCUACAGUCCGACGAUCCCCCCCUUUUUUUAAACGCGUGAUGAAGACAGAAGGCUCCGGGGUGACGAAUUUGGCCGAUGGCAGAUGUUUUGGGGGAACGCCGGGACUGAGAGACUCCACGCAGGCGAAUUCCCGUUUCAACAGAGGAUUGAGCAUCA
B13: chr2:149026443:149026544:+|3pUTR|ENSG00000168280|msi1|FALSE|bound_elsewhere (ssRNA)
RNA: GGGAGUUCUACAGUCCGACGAUCGUAAAGUGUGUCCUGUGUACUGCAGAUGUGUGUUCUCUGGGCUUUAUGUAUCUGUACAGUAGCUUUCACAUUAAAAAAAUUGUGGACAAACUUGUCCGGGGGGUUUGAGGGGAGAAUGGUCAACAGAGGAUUGAGCAUCA
B14: chr1:37709127:37709197:+|3pUTR|ENSG00000134690|msi1_unk|FALSE|overlapping (ssRNA)
RNA: GGGAGUUCUACAGUCCGACGAUCUGAAGACCAAAUACUGGUUUGGAGACAACUUCCAUGUCUUGCUCUUCUACCUCCCUAGUUAGUGGAAAUUUGGAUAAGGGAACUGUAGGGCCCAGAUUCUGGAGGUUUUAUGUCAUUGGCCAACAGAGGAUUGAGCAUCA

Each binder was assayed against T1, UNK ZnF1-6 (called full-length) (assay: nsRBNS (natural sequence RNA bind-n-seq); RBNS binding buffer (assumed for nsRBNS): 25 mM Tris pH 7.5, 150 mM KCl, 3 mM MgCl2, 0.01% Triton X-100, 500 ug/ml BSA, 20 U/ml SUPERase-In, 4 C; UNK is unkempt and MSI1 is Musashi-1; names of the RNAs are library labels; protein concentration not given here; high values mean tight binding).

| Binder | binding signal |
| --- | --- |
| B1 | 0.498 enrichment R |
| B2 | 0.521 enrichment R |
| B3 | 0.655 enrichment R |
| B4 | 0.864 enrichment R |
| B5 | 0.515 enrichment R |
| B6 | 0.824 enrichment R |
| B7 | 0.561 enrichment R |
| B8 | 1.1 enrichment R |
| B9 | 0.553 enrichment R |
| B10 | 0.654 enrichment R |
| B11 | 0.599 enrichment R |
| B12 | 1.01 enrichment R |
| B13 | 1.03 enrichment R |
| B14 | 1.1 enrichment R |
